This passage reports ETS1 binding intensity results from the supplement of paper PMC10681739.

The full ranking holds about 4,100 sequences; the median of “arbitrary fluorescence units” is about 780, and the highest 2% start at about 22,000. This is one part of the list.

The target of the assay is T1, ETS1 (UniProt P14921).
T1 sequence: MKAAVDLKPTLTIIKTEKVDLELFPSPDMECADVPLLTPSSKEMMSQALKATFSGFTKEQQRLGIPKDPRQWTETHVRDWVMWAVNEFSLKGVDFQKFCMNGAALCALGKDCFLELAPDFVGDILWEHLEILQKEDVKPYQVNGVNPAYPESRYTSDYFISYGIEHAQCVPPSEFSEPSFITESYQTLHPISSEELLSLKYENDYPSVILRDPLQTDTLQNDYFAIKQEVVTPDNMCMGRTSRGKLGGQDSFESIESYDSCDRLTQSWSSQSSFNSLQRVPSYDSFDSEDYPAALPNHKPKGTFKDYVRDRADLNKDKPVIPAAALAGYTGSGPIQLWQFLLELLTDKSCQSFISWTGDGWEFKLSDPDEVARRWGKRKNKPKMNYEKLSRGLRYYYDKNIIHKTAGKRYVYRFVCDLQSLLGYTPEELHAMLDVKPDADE
In words: ETS1 binding intensity (PBM fluorescence), ETS1 alone (arbitrary fluorescence units); higher = stronger binding. The settings on record: ETS1 concentration 1 nM; RUNX1 concentration 0 nM. The procedure, abridged:
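Double-stranded Agilent 4 × 180k arrays held 36-bp genomic probes whose RUNX1 partner site was mutated, and these were incubated with 1 nM full-length recombinant human ETS1 in the absence of RUNX1 under standard PBM protocols. Bound protein was labelled with anti-ETS1 antibody (Cell Signaling Technology 14069) plus an Alexa488-conjugated secondary and read on a GenePix 4400A, with four spots printed per sequence. Binding level is reported as raw spot fluorescence intensity summarised over replicate spots.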
GGCAGGAGCAGCCGTAAACTAGGCCGGAAAACTGTC came in with an ETS1 binding intensity of 437. Under CCTCCCGGCTTCCGTTCCTTGCCCACCTCCTTCTCG stands 5200; under GAGCCACGCACACACAGCTCACAGGAAGAAGATAAG, 510; under GGCTACAGCAACCGTAAGGCATCACGGAAGTCGTAG, 471. AGGCGCCGGAAAAACTACATCTCCCAAAATCCTCGG: the ETS1 binding intensity came out at 535. With CACCCTTCCGGCGGTGGCGGGCCTCGGTAATCGCCC, the ETS1 binding intensity was determined as 5760. Under CGTCCTGTGCTGCAGGCTCAGGCGGAACCCTGAACG stands 327; under CTCTTCCAGGAAGCCTTCCCTGGCCACTGCTTGCTC, 734. In the case of ACAAGGACTTCCGCCTCCCTGGGGTCCCTCCCCTAC, the ETS1 binding intensity worked out at 10100. As for CAGGGAAGTGATGCACAGAAAACACAAGCACACTGT, the figure is 425; as for ATAGAAACTACAGGAAATACTGTGCTCAGGTTTTGA, 2430; as for TGAGGCTCAGAGGAAGTGACTGGCCCTCAGGGTCAC, 1050.

As for GCTGACCCTGAGGGTGGCAGGAAGGAAGAGGAGTGA, the ETS1 binding intensity came to 455. Under GCTGTAGGAAATGTTATTCGCCGCGATCAGGACAGG stands 536. As for GGCAGCAAGAAAGGAAATAGTGTGCTTGGGTGGAGA, the figure is 911; as for AACCCAGAGCTACCAGACAGCACAGGATGCAGACAA, 550; as for CTGCGCGGCCGGAAGTCGGCGGATTCCCAGACGACG, 20700. Under TTCTCTGCACTGCGATTTACTCAGGAAGAAGACAAC stands 385; under AGCGTGCTCTTCGGTTCACTTCCGGCCAGCCCCTCC, 9360. TGCGACGCGGCTAAGCCGGGCGAAGGCCGGAAGCGG displayed an ETS1 binding intensity of 1180. Sequence TCGCCCGCCGCTTCCTGTCGCGGCGCCGCTGAGGCC showed an ETS1 binding intensity of 12900. As for CACCCGAACGGAAACACCTGCTGCTGAGGGGAGGGG, the figure is 1940; as for CTCCCCAGGATGAGGGTCCCAGGGCTTACTCGCGCC, 331; as for GGCGGGTTCCGGCTATTCCCTTCGAGGTCCAGTTTA, 2250. As for CCTGTGCTGAGGGCTCAGGCGGAACCCGAAACGGTC, the figure is 371; as for TCTGGACCAGCAGGCCGCTCAGTTTCCCGGTGTCCA, 358.

Regarding CTGCTGTAAAAATAGGCAGTGGGGGAGGAAGTTCAC, the ETS1 binding intensity came out at 535. As for GAAGCCCAACAGGATGCCGAGTAAGCACCCACTGAA, the figure is 1520; as for ACTAGAGCCAGCCACCTGCCTTCCGTCTTCCAGGCA, 417. As for ATCTCACTGTGATTTTACTTTGCATTTCCTGTACTC, the figure is 1470; as for TGATGTGATTTTGAAAGTGGAAGAGGGCAGGAAGTG, 637; as for CCCAGCCCTTCCTGCAGGGTCGCTTGTAGGTCGGGT, 1520. As for AAGTGGAGAGCGGAAGTGAGCTGTAGGTGACTGCAG, the figure is 10700; as for GCTGGGGGGCTCCCGAAGAGGCAGGGAAGTGGCGGG, 617. CTCCCACGCTCCCCTTCCGGCCCCGCTGCGCTGTGA registered an ETS1 binding intensity of 3160. Consider TGCTGTCAAGTCACAGGCCTTTCCTGCTATCGTTTG, for which the ETS1 binding intensity was found to be 569. As for CACTGATAACTACCTCTCTACACTGCTTCCGCAGTG, the figure is 827. In turn, GAACCACTTCCCTGAAACCATTTATCACATAAATCT gave an ETS1 binding intensity of 1510. Under GTCAGGCAGCTGTGCTCTTGCACGGAAGTCTTTAAT stands 512; under TGGAGCCGGGGAAACGGCCAAGGTGGCGGGAGTCTC, 302.

Take GAGGTCCTGGAGGTTTCATTTCCGGGTGCAGCTTCT: the ETS1 binding intensity amounted to 5230. As for GAGAATCCACGCAAACCAAGCCACTTCCCCCAAGTC, the figure is 397; as for CTAATGGCGAAAGCACGGAGAGAAGGAAGTGAAGAA, 507; as for GATGAAAAGGAAACAAACTTGAGCTTCGGCGATGGG, 512. As for GAAAGACAGGATGTGGGATAGATCTCAAGCACCTTT, the figure is 6280; as for GCAAGACCTCGCATTAACATCTCGGAAACGGACAGC, 425; as for TACAGTTCCGCTTGCTGTGATTTCAGTTACCCTCAG, 3600. Under GCGCTTCCCGGCGTGCCCCGCGCAGCGGCCTGAAGG stands 1730.

Regarding ACGGAGCTGTAGTTTAACGTTTCCGGTTCGTGGCTA, the ETS1 binding intensity turned out to be 9580.

Consider CAGCGGCGGATTCGGCGGTGGCGGAAGTGGAGTGGG, for which the ETS1 binding intensity came out at 2010. As for CCAGCAGCACATCCCCCTTCTTCGTCCCGAAGAGGG, the figure is 532; as for CTGAGACATCCTGATAATTCTGTAGGTTACCCCAAA, 1950. Take TTTCTTTCTGTGATTTATCCTTATTTCCTGGCTTCG: the ETS1 binding intensity was 788. As for ATCGAGGAGCACGGTTACCGGACGGGCTGGGTCTAT, the figure is 303. Under CAGAAACAGCAGAACTGAGCTGACGACCCGGAAGTG stands 851. As for GAGGCGTTTCCGCCTCCTTTTCGGGGTTGCCTTCTC, the figure is 7760.

On to AGCGCTTCCTGGCTCCGGCCCCGCCCCTGCAGTCGG, for which the ETS1 binding intensity worked out at 6440.

Sequence GTGGGGGGCGGCTTGTTGGGGCGTCCGGTTCGCCGC came in with an ETS1 binding intensity of 1280. Sequence CTTATCCCAGAAGGGCACCTGGCCGGAATAATGGAG had an ETS1 binding intensity of 342. As for ACCCTCTTTCCGGTGGAAAGCGGCGGCCTCCCAGAG, the figure is 11900; as for GTTCATCCAGGAAACCCCAACCCAGTGCCGCTGTAT, 702; as for TGCCGCCTGCAGCACCCTCCCCATTTCCTGGCTGTA, 1190.

In turn, CTCCTGAGGAAGTAGTTACAGACACCCCAGCGGAGG returned an ETS1 binding intensity of 708. Under TGTGGAGACAGGAAGCACTAACCCCAAACCTCTTTC stands 2810; under AGCTGTTCCGCCACGCTCGGCGTGGGCCGAGGTGGG, 489; under AGATCTTATAAGCTGCACAGGCCGGAAGGAAAAGGG, 654. In the case of CCAGAGACAACAGCCACTCTCTTCTCCCCATCCGCC, the ETS1 binding intensity turned out to be 364. Consider CGTGGCGGGTGAGGGGCAGTGGTGGCGGCGGAAGCC, for which the ETS1 binding intensity amounted to 542. As for GCCCGGCCGCCTACGGCCCGGCTTCCGGTCCCGTCT, the figure is 7540; as for CAGTCGCCAGAAAGCACAGCACTTCCGCCTGCTTCA, 3760.

The sequence GCAGGTCCACGGCGCATGCCTGAAGAGGAAGCCCAG displayed an ETS1 binding intensity of 290. As for GTGTCGTGAGCCACAGGCTGCCATAGATCCGGAGGC, the figure is 371; as for GCCATCCGCAGGACTCCGCGTTCTCGCGATAAGTGG, 939; as for ACAGTTTCCTTGCTGTGATGTCAGCCCCCGCTGCAG, 1730. As for CCAACACAGGAAATAATTTGAAACTACAATCAGAAA, the figure is 3170; as for AGAACTGTGATATGCGCAAACCATTACAGGATGTGA, 511; as for CGAATGTAAGCACCTCTCGGCCCGGCCGGAAGAAGC, 697. As for TCCCCACATCCTTTAAAACGATGAGATAACGACATG, the figure is 5080; as for GGCGCCAGAACAGCACCTTTCTTTGTTTCCTCTTCG, 400; as for TTGCTCCCGGAAGCCCCGCCCGTCCGTGGCTCCTGA, 1350.
